Data: PubChem BioAssay AID2147 (National Center for Advancing Translational Sciences (NCATS), 2009)
About 3,600 (1.6%) of roughly 230,000 compounds were called active. Inconclusive results, whose numbers are uncertain, are shown with a selection of clear calls. Calls come from the whole dose curve; as a rule, active = well fitted inhibition curve with a large enough effect (not every such curve was filed as active); inconclusive = small, poorly fitted or top-dose-only effect, or another doubt; inactive = no such curve, though single readings can be large or run the other way. A potency beside an inconclusive call is a rough fit, not a confirmed value.

Target: Lysine-specific demethylase 4E (Homo sapiens) (UniProt B2RXH2)
UniProt B2RXH2, sequence (B2RXH2 whole entry, looked up, the tested form may be a part): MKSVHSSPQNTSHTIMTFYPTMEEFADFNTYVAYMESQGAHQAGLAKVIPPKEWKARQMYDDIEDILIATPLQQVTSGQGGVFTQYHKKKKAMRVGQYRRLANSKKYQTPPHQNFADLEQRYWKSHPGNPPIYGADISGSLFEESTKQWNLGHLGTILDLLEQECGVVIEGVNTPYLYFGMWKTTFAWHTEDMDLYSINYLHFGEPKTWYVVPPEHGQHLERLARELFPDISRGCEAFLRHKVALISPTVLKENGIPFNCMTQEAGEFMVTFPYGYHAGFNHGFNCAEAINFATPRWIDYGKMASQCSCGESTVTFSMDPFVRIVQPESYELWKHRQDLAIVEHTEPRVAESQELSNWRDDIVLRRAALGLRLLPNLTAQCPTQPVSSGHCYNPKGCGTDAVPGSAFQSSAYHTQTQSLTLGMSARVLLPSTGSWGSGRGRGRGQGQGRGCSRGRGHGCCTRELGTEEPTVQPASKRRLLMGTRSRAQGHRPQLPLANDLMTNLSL
Test: qHTS Assay for Inhibitors of Human Jumonji Domain Containing 2E (JMJD2E)
Settings: JMJD2E catalytic domain, FDH-coupled NADH fluorescence (FDH is formaldehyde dehydrogenase); series mostly up to 57.1 µM
Note: nearly all actives have a fitted effect of over 50% in size.
Potency is the fitted concentration of half-maximal effect; tags give direction and shape of the fitted curve.

Row | SMILES | Potency
1 | c1ccc2nc3ccccc3nc2c1 | inactive
2 | CSc1nsc(N/N=C/c2ccccc2)c1C#N | inactive
3 | O=C(/C=C/c1ccccc1)NC(=S)NNC(=O)c1ccco1 | inconclusive: 39.8 µM [inhibitor, single point]
4 | COC(=O)c1cc2c(s1)CS(=O)C2 (stereo not given) | inconclusive: 35.5 µM [inhibitor, single point]
5 | COc1ccc(C(=O)N2CCN(c3nnnn3-c3ccccc3)CC2)cc1OC | inactive
6 | CCc1ccc(S(=O)(=O)c2nnn3c2nc(NCCNC(C)=O)c2ccccc23)cc1 | inconclusive: 31.6 µM [inhibitor, partial curve]
7 | CCCOC1OC(=O)c2c1ccc(OC)c2OC (stereo not given) | inconclusive: 31.6 µM [inhibitor, single point]
8 | CSc1ccc(NC(=O)Nc2cccn(Cc3ccccc3)c2=O)cc1 | inconclusive: 31.6 µM [inhibitor, single point]
9 | OCCN1CCN(C(=S)Nc2cccc(C(F)(F)F)c2)CC1 | inconclusive: 35.5 µM [inhibitor, single point]
10 | COc1ccc(C)cc1NC(=O)C1C2C=CC(C2)C1C(=O)O (stereo not given) | inactive
11 | O=S(=O)(CCc1ccccc1)c1nnnn1C1CCCCC1 | inactive
12 | COc1ccc(CC(=O)OCc2cc3ccccc3[nH]c2=O)cc1 | inconclusive: 35.5 µM [inhibitor, single point]
13 | Fc1ccc2c(c1)[C@H]1OCC[C@H]1[C@@H](c1ccco1)N2 | inconclusive: 35.5 µM [inhibitor, single point]
14 | Nc1c(N(CCO)C(=O)C2CCCCC2)c(=O)[nH]c(=O)n1Cc1ccccc1 | inconclusive: 22.4 µM [inhibitor, partial curve]
15 | COc1ccc(-n2c(SC(C)C(=O)Nc3ncc(Cl)cc3Cl)nc3ccccc32)cc1 (stereo not given) | inconclusive: 35.5 µM [inhibitor, partial curve]
16 | Cc1cccc(NCN2C(=O)c3ccncc3C2=O)n1 | inconclusive: 35.5 µM [inhibitor, single point]
17 | Cn1nnnc1SCC(=O)Nc1ccc2c(c1)OCO2 | inactive
18 | Cc1ccc(C)c2[nH]c(=O)c(CN(CCN3CCOCC3)Cc3nnnn3CC3CCCO3)cc12 (stereo not given) | inconclusive: 25.1 µM [inhibitor, partial curve]
19 | C/C(=N\O)c1ccc2c3c([nH]c2c1)CCCC3 | inconclusive: 28.2 µM [inhibitor, partial curve]
20 | COc1ccc(C(=O)CSc2nnc(-c3ccco3)c(-c3ccco3)n2)cc1 | inconclusive: 20 µM [inhibitor, partial curve]
21 | O=C(NC1CCC(O)CC1)c1cc(-c2ccco2)nc2ccccc12 (stereo not given) | inconclusive: 31.6 µM [inhibitor, partial curve]
22 | Cc1ccsc1/C=C1\SC(N2CC(C)OC(C)C2)=NC1=O (stereo not given) | inactive
23 | COc1nccc(C(F)(F)F)c1C(=O)NC(=O)Nc1ccccc1 | inactive

Row | SMILES | Potency
24 | O=C(O)COc1ccc2c(c1)CCCC2 | inactive
25 | C[C@]12C=CC(=O)C=C1CCC1C3CC[C@](O)(C(=O)CO)[C@@]3(C)CC3OC312 (stereo not given in full) | inconclusive: 4.47 µM [inhibitor, partial curve]
26 | COc1ccccc1-c1nc2n(n1)C(c1ccc(Cl)cc1)C(C(N)=O)=C(C)N2 (stereo not given) | inconclusive: 28.2 µM [inhibitor, single point]
27 | O=C1C=CC(=O)C(C2=C3C(=O)N(CCc4ccccc4)CC(=O)N3CCC2)=C1 | inconclusive: 1.58 µM [inhibitor, partial curve]
28 | COc1ccc(-c2nn(-c3ccccc3)cc2/C=C\C(=O)Nc2ccc(C(=O)O)cc2)cc1 | inconclusive: 31.6 µM [inhibitor, partial curve]
29 | CCOc1cc(NC(=O)c2ccco2)c(OCC)cc1NC(=O)CCC(=O)NCc1cccnc1 | inconclusive: 39.8 µM [inhibitor, single point]
30 | O=c1ccc2ccc(O)c(O)c2o1 | active: 7.08 µM
31 | Cc1cc(=O)oc2cc(OCC(O)CN3CCN(c4ccccc4)CC3)ccc12 (stereo not given) | inconclusive: 28.2 µM [inhibitor, partial curve]
32 | O=C(c1ccccc1F)N1CCN(S(=O)(=O)c2ccc(S(=O)(=O)N3CCCCCC3)cc2)CC1 | inconclusive: 39.8 µM [inhibitor, single point]
33 | Cc1cccc(CNc2cc(-c3cccc(NS(C)(=O)=O)c3)ncn2)c1 | inconclusive: 25.1 µM [inhibitor, partial curve]
34 | N=C1SCC(=O)N1c1nc(-c2ccccc2)cs1 | inconclusive: 39.8 µM [inhibitor, single point]
35 | COc1cccc(-n2c(=S)[nH]c3c(oc4ccccc43)c2=O)c1 | inconclusive: 20 µM [inhibitor, single point]
36 | CCOC(=O)c1[nH]c2cc(OC)c(OC)cc2c1NC(=O)c1ccc2c(c1)OCO2 | inconclusive: 39.8 µM [inhibitor, single point]
37 | CCCNC(=O)c1ccc(S(N)(=O)=O)cc1 | inconclusive: 35.5 µM [inhibitor, single point]
38 | O=C(CSc1nc2ccccc2o1)N/N=C/c1ccc(O)c(O)c1 | active: 11.2 µM
39 | CCOC(=O)NN1C(=O)c2ccccc2NC1c1ccc(OC)c(OC)c1 (stereo not given) | inconclusive: 28.2 µM [inhibitor, partial curve]
40 | COc1ccc(OC(C)C(=O)N2CCN(c3ccccn3)CC2)cc1 (stereo not given) | inconclusive: 25.1 µM [inhibitor, partial curve]
41 | O=c1c2ccccc2c(/C=N/c2ncn[nH]2)c(O)n1Cc1ccccc1 | inconclusive: 22.4 µM [inhibitor, partial curve]
42 | CCOC(=O)c1cnc2nc(N3CCOCC3)nn2c1N | inconclusive: 25.1 µM [inhibitor, partial curve]
43 | Cc1ccc2nc(-c3ccco3)c(Nc3ccccc3)n2c1 | inconclusive: 7.94 µM [inhibitor, partial curve]
44 | CCN(CC)c1ccc(/C=N/NC(=O)OC)c(O)c1 | active: 12.6 µM
45 | CCOC(=O)c1ccc2nc(NC(=O)c3ccco3)sc2c1 | inconclusive: 28.2 µM [inhibitor, single point]
